# This is one part of the list.
# How the values were obtained:
# Assay in all cases: glycan array binding signal (z-score within array); higher = stronger binding
# Details in all cases: glycan notation: IUPAC condensed, linker removed
# [1] = molecular target: Fuc(a1-2)[GalNAc(a1-3)]Gal(b1-4)[Fuc(a1-3)]GlcNAc
# Summary of the method: (§1)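 Arrays were curated from the Consortium for Functional Glycomics database, 3228 in total, and kept only where the protein sequence was available. Binding is expressed as a within-array Z-score. This score was averaged across arrays of the same protein sequence at different concentrations or buffers and across linkers, and negative values can be read as non-binding.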
# [2] = molecular target: Fuc(a1-2)[GalNAc(a1-4)]Gal(b1-4)GlcNAc
# Summary of the method: as §1
# Fuc(a1-3)GlcNAc = molecular target: Fuc(a1-3)GlcNAc
# Summary of the method: as §1
# [3] = molecular target: Fuc(a1-3)[Gal(b1-4)]Glc6S
# Summary of the method: as §1
# [4] = molecular target: Fuc(a1-3)[Gal(b1-4)]GlcNAc
# Summary of the method: as §1
# [5] = molecular target: Fuc(a1-3)[Gal(b1-4)]GlcNAc(b1-3)Gal(b1-3)[Fuc(a1-4)]GlcNAc
# Summary of the method: as §1
# [6] = molecular target: Fuc(a1-3)[Gal(b1-4)]GlcNAc(b1-4)Gal(b1-4)[Fuc(a1-3)]GlcNAc
# Summary of the method: as §1
# [7] = molecular target: Fuc(a1-3)[Gal(b1-4)]GlcNAc(b1-4)Gal(b1-4)[Fuc(a1-3)]GlcNAc(b1-4)Gal(b1-4)[Fuc(a1-3)]GlcNAc
# Summary of the method: as §1
# [8] = molecular target: Fuc(a1-3)[Gal(b1-4)]GlcNAc6S
# Summary of the method: as §1
# [9] = molecular target: Fuc(a1-3)[Gal3S(b1-4)]Glc
# Summary of the method: as §1
# [10] = molecular target: Fuc(a1-3)[Gal3S(b1-4)]Glc6S
# Summary of the method: as §1
# [11] = molecular target: Fuc(a1-3)[Gal3S(b1-4)]GlcNAc
# Summary of the method: as §1
# [12] = molecular target: Fuc(a1-3)[Gal3S(b1-4)]GlcNAc6S
# Summary of the method: as §1
# [13] = molecular target: Fuc(a1-3)[GalNAc(b1-4)]Gal(b1-4)GlcNAc
# Summary of the method: as §1
# Fuc(a1-4)GlcNAc = molecular target: Fuc(a1-4)GlcNAc
# Summary of the method: as §1
# Fuc(b1-3)GlcNAc = molecular target: Fuc(b1-3)GlcNAc
# Summary of the method: as §1
# Gal(a1-2)Gal = molecular target: Gal(a1-2)Gal
# Summary of the method: as §1
# Gal(a1-3)Gal = molecular target: Gal(a1-3)Gal
# Summary of the method: as §1
# Gal(a1-3)Gal(b1-3)Glc = molecular target: Gal(a1-3)Gal(b1-3)Glc
# Summary of the method: as §1
# Gal(a1-3)Gal(b1-3)GlcNAc = molecular target: Gal(a1-3)Gal(b1-3)GlcNAc
# Summary of the method: as §1
# Gal(a1-3)Gal(b1-4)GlcNAc = molecular target: Gal(a1-3)Gal(b1-4)GlcNAc
# Summary of the method: as §1
# [14] = molecular target: Gal(a1-3)Gal(b1-4)[Fuc(a1-3)]GalNAc
# Summary of the method: as §1
# Gal(a1-3)GlcNAc = molecular target: Gal(a1-3)GlcNAc
# Summary of the method: as §1
# [15] = molecular target: Gal(a1-3)[Gal(a1-4)]Gal(b1-4)GlcNAc
# Summary of the method: as §1
# Gal(a1-4)Gal(b1-4)Gal = molecular target: Gal(a1-4)Gal(b1-4)Gal
# Summary of the method: as §1
# Gal(a1-4)Gal(b1-4)GalNAc = molecular target: Gal(a1-4)Gal(b1-4)GalNAc
# Summary of the method: as §1
# Gal(a1-4)GlcNAc = molecular target: Gal(a1-4)GlcNAc
# Summary of the method: as §1
# Gal(a1-6)Glc = molecular target: Gal(a1-6)Glc
# Summary of the method: as §1
# Gal(b1-2)Gal = molecular target: Gal(b1-2)Gal
# Summary of the method: as §1
# Gal(b1-3)Gal = molecular target: Gal(b1-3)Gal
# Summary of the method: as §1
# Gal(b1-3)GalNAc = molecular target: Gal(b1-3)GalNAc
# Summary of the method: as §1
# [16] = molecular target: Gal(b1-3)GalNAc(b1-3)Gal(a1-4)Gal(b1-4)Glc
# Summary of the method: as §1
# [17] = molecular target: Gal(b1-3)GalNAc(b1-3)Gal(b1-4)Glc
# Summary of the method: as §1
# [18] = molecular target: Gal(b1-3)GalNAc(b1-3)Gal(b1-4)GlcNAc
# Summary of the method: as §1
# [19] = molecular target: Gal(b1-3)GalNAc(b1-4)Gal(b1-4)Glc
# Summary of the method: as §1
# [20] = molecular target: Gal(b1-3)GalNAc(b1-4)[Neu5Ac(a2-3)]Gal(b1-4)Glc
# Summary of the method: as §1
# [21] = molecular target: Gal(b1-3)GlcNAc(b1-3)Gal(b1-3)GlcNAc
# Summary of the method: as §1
binder,measurement,setting,value
"TLEC1 (Arabidopsis thaliana), Q9C5Q9 (protein) MSGASSVSSICSSNVSLIPTGPQVFINFRGKDLRKGFMSFLKPALKKEKINVFIDEQEERGKYLISLFDTIGESKIALVIFSEGYCESHWCMDELVKIKEYMDQNRLIIIPIFYRLDLDVVKDLTGKFGDNFWDLVDKYQPEPKKLHKWTEALFSVCELFSLILPKHSDISDRDFVKSIVKAVKKVQKNFFQRRNGEIEYQDFSVPACKLTITMHESPNEEAVQVTVLNEFYQMKNQSPVPSYEFKFWVDLTRPKGNVFMIDARDLSIAWSEDSNHWTWLPLPNQNSNESVMEIAFLKSASWLDVAGKFDTRYLTPRTRYEVVFVVKLEYTFEWETLVKLKLDLPNTWEKPQEQSVDMFDYISDQWLDIPVGEFTTSKKNVGEISFAMYEHECQLWKSGLFVKGVTIRPKY",glycan array binding signal (z-score),[1],0.351
same,glycan array binding signal (z-score),[2],-0.261
same,glycan array binding signal (z-score),Fuc(a1-3)GlcNAc,1.82
same,glycan array binding signal (z-score),[3],-0.456
same,glycan array binding signal (z-score),[4],-0.301
same,glycan array binding signal (z-score),[5],-0.421
same,glycan array binding signal (z-score),[6],-0.048
same,glycan array binding signal (z-score),[7],-0.387
same,glycan array binding signal (z-score),[8],-0.407
same,glycan array binding signal (z-score),[9],-0.367
same,glycan array binding signal (z-score),[10],-0.083
same,glycan array binding signal (z-score),[11],-0.384
same,glycan array binding signal (z-score),[12],0.212
same,glycan array binding signal (z-score),[13],-0.305
same,glycan array binding signal (z-score),Fuc(a1-4)GlcNAc,0.192
same,glycan array binding signal (z-score),Fuc(b1-3)GlcNAc,-0.029
same,glycan array binding signal (z-score),Gal(a1-2)Gal,-0.074
same,glycan array binding signal (z-score),Gal(a1-3)Gal,0.303
same,glycan array binding signal (z-score),Gal(a1-3)Gal(b1-3)Glc,-0.309
same,glycan array binding signal (z-score),Gal(a1-3)Gal(b1-3)GlcNAc,-0.213
same,glycan array binding signal (z-score),Gal(a1-3)Gal(b1-4)GlcNAc,-0.334
same,glycan array binding signal (z-score),[14],-0.25
same,glycan array binding signal (z-score),Gal(a1-3)GlcNAc,-0.234
same,glycan array binding signal (z-score),[15],-0.228
same,glycan array binding signal (z-score),Gal(a1-4)Gal(b1-4)Gal,-0.13
same,glycan array binding signal (z-score),Gal(a1-4)Gal(b1-4)GalNAc,-0.13
same,glycan array binding signal (z-score),Gal(a1-4)GlcNAc,-0.035
same,glycan array binding signal (z-score),Gal(a1-6)Glc,0.182
same,glycan array binding signal (z-score),Gal(b1-2)Gal,-0.119
same,glycan array binding signal (z-score),Gal(b1-3)Gal,0.513
same,glycan array binding signal (z-score),Gal(b1-3)GalNAc,-0.297
same,glycan array binding signal (z-score),[16],-0.327
same,glycan array binding signal (z-score),[17],-0.22
same,glycan array binding signal (z-score),[18],-0.008
same,glycan array binding signal (z-score),[19],-0.24
same,glycan array binding signal (z-score),[20],-0.315
same,glycan array binding signal (z-score),[21],-0.495

# From the supplement of paper PMC8728848
